The target in experiment [1] is T1, recombinant human ENPP3 (full-length extracellular domain) (human, UniProt O14638 31-875).
T1 construct: extracellular domain; Bought protein; also called Human ENPP3 (CD203c) protein
T1 sequence (looked up): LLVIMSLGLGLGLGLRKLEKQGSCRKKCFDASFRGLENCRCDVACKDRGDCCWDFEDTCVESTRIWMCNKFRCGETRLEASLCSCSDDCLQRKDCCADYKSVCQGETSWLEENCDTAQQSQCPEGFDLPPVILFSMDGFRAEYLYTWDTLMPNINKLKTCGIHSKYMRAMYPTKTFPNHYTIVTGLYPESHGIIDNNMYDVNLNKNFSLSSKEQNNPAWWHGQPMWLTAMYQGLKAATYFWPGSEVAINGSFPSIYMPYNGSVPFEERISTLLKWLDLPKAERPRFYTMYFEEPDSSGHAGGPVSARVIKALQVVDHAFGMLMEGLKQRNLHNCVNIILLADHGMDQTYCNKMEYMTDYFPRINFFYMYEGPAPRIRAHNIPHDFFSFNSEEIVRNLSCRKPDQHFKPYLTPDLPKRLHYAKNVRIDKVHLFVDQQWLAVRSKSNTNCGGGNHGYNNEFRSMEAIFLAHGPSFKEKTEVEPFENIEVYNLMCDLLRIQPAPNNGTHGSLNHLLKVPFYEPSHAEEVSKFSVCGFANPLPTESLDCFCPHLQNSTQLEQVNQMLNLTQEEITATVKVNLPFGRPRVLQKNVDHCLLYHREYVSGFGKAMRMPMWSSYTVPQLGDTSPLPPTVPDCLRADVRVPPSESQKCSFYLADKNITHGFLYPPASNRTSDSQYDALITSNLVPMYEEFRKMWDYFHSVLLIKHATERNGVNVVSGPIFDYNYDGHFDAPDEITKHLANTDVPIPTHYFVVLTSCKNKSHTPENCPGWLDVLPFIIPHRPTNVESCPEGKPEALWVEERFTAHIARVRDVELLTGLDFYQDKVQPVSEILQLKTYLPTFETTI
Description: ELISA, human ENPP3 coated. How it is done: (§1) ELISA was performed according to standard protocols, to determine binding affinity of anti-ENPP3 3A10 mAb to recombinant human ENPP3 (AcroBiosystems). Briefly, recombinant human ENPP3 was coated on Corning EIA/RIA high-binding 96-well plates (Corning Inc.) at 100 ng per well overnight at 4° C. and blocked with 3% nonfat milk in PBS (pH7.4). Five-fold serially diluted antibodies were added and incubated at 37° C. for 1 h. The plates were washed with PBS containing 0.05% TWEEN® 20. Bound antibodies were detected by anti-human IgG (Fc-specific)-peroxidase antibody (Sigma). The assay was developed at room temperature with TMB substrate (Solarbio) and monitored at 450 nm with a microplate reader. The half-maximal binding ($EC50$) was calculated by fitting the data to the Langmuir adsorption isotherm.
(§2) To determine binding affinity of the bispecific antibody CMD016 to both ENPP3 and CD3, ELISA experiments were performed as described in Example 3, with the coating proteins of human ENPP3 or human CD3.

The next experiment deals with recombinant human CD3 (human). Description: ELISA, human CD3 coated. Here is the method:
as §1, §2
For orientation: ELISA stands for enzyme-linked immunosorbent assay.

We go through one molecule from US11766479 (ZHEJIANG SHIMAI PHARMACEUTICAL, dated 2023).

Sequence of recombinant human CD3 (P07766 23-126): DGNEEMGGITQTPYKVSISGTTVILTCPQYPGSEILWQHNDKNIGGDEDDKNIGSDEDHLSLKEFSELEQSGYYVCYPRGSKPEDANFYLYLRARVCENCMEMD

B1: CMD016 (3A10-based ENPP3xCD3 HBiTE) (bispecific antibody)
heavy: EVQLVESGGGLVKPGGSLRLSCAASGFTFSNAWMSWVRQAPGKGLEWVSYISSSGSTIYYADSVKGRFTISRDNAKNSLYLQMNSLRAEDTAVYYCARLAGPYYFDYWGQGTLVTVSSGSGGSGGGGSGGGGSEVQLVESGGGLVQPGGSLRLSCAASGFTFNTYAMNWVRQAPGKGLEWVARIRSKYNNYATYYADSVKGRFTISRDDSKNTLYLQMNSLRAEDTAVYYCARHGNFGSSYVSYFAYWGQGTTVTVSSASTKGPSVFPLAPSSKSTSGGTAALGCLVKDYFPEPVTVSWNSGALTSGVHTFPAVLQSSGLYSLSSVVTVPSSSLGTQTYICNVNHKPSNTKVDKKVEPKS[human IgG1 Fc with T366L Y407H (EU numbers) left out here]
light: QSVVTQPPSVSAAPGQKVTISCSGSSSNIGNNYVSWYQQLPGTAPKLLIYDNNKRPSGIPDRFSGSKSGTSATLGIDGLRTGDEAEYFCGVWDSSLRAELFAGGTKVTVLGSGGGGSGGGGSEIVVTQSPATLSVSPGERATLSCRSSTGAVTTSNYANWVQQKPGQAPRGLIGGANKRAPGVPARFSGSLSGDEATLTISSLQSEDFAVYYCALWYSNLWVFGQGTKLEIKRTVAAPSVFIFPPSDEQLKSGTASVVCLLNNFYPREAKVQWKVDNALQSGNSQESVTEQDSKDSTYSLSSTLTLSKADYEKHKVYACEVTHQGLSSPVTKSFNRGE[human IgG1 Fc with T366L Y407H (EU numbers) left out here]
notes: Heterodimer of one light and one heavy chain (about 120 kDa non-reduced); Light chain: anti-ENPP3 VL, linker, anti-CD3 hSP34 VL-CL, mFc7.2; Heavy chain: anti-ENPP3 VH, linker, anti-CD3 VH-CH1, mFc7.2; also called 3A10-based ENPP3×CD3 HBiTE; bispecific antibody targeting ENPP3 and CD3
Usually EC50 stands for the concentration giving half of the maximal effect. As for B1, the EC50 in experiment [1] was found to be 2.29 nM; in the experiment with recombinant human CD3 it was 5.28 nM.
